# Laboratory results as given in the supplement of paper PMC8728848.
# Some of the results follow.
# Tests used:
# Assay in all cases: glycan array binding signal (z-score within array); higher = stronger binding
# Settings in all cases: glycan notation: IUPAC condensed, linker removed
# [1] = target: GalNAc(b1-3)GalNAc
# Method in brief: (§1)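 Columns mapping to the same glycan were averaged after glycan names were converted to IUPAC-condensed notation. The data come from 3228 arrays in the Consortium for Functional Glycomics database, limited to those with an available protein sequence. Binding is reported as a within-array Z-score averaged across arrays of one protein sequence and across linkers.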
# [2] = target: GalNAc(b1-4)GlcNAc
# Method in brief: as §1
# [3] = target: Glc(a1-4)Glc
# Method in brief: as §1
# [4] = target: Glc(b1-4)Glc
# Method in brief: as §1
# [5] = target: Glc(b1-6)Glc
# Method in brief: as §1
# [6] = target: GlcNAc(b1-2)Gal(b1-3)GalNAc
# Method in brief: as §1
# [7] = target: GlcNAc(b1-3)Gal
# Method in brief: as §1
# [8] = target: GlcNAc(b1-3)Gal(b1-3)GalNAc
# Method in brief: as §1
# [9] = target: GlcNAc(b1-3)Gal(b1-4)Glc
# Method in brief: as §1
# [10] = target: GlcNAc(b1-3)Gal(b1-4)GlcNAc
# Method in brief: as §1
# [11] = target: GlcNAc(b1-3)[GlcNAc(b1-6)]GalNAc
# Method in brief: as §1
# [12] = target: GlcNAc(b1-3)[GlcNAc(b1-6)]GlcNAc(b1-4)GlcNAc
# Method in brief: as §1
# [13] = target: GlcNAc(b1-4)GlcNAc(b1-4)GlcNAc
# Method in brief: as §1
# [14] = target: GlcNAc(b1-4)[GlcNAc(b1-6)]GalNAc
# Method in brief: as §1
# [15] = target: GlcNAc(b1-6)GalNAc
# Method in brief: as §1
# [16] = target: Kdn(a2-3)Gal(b1-3)GlcNAc
# Method in brief: as §1
# [17] = target: Kdn(a2-3)Gal(b1-4)GlcNAc
# Method in brief: as §1
# [18] = target: Man(a1-2)Man(a1-2)Man(a1-3)Man
# Method in brief: as §1
# [19] = target: Man(a1-2)Man(a1-2)Man(a1-6)[Man(a1-3)]Man
# Method in brief: as §1
# [20] = target: Man(a1-2)Man(a1-3)Man
# Method in brief: as §1
# [21] = target: Man(a1-2)Man(a1-3)[Man(a1-2)Man(a1-6)]Man
# Method in brief: as §1
# [22] = target: Man(a1-2)Man(a1-3)[Man(a1-2)Man(a1-6)]Man(a1-6)[Man(a1-2)Man(a1-2)Man(a1-3)]Man(b1-4)GlcNAc(b1-4)GlcNAc
# Method in brief: as §1
# [23] = target: Man(a1-2)Man(a1-3)[Man(a1-2)Man(a1-6)]Man(a1-6)[Man(a1-3)[Man(a1-6)]Man(a1-6)]Man(b1-4)GlcNAc(b1-4)GlcNAc
# Method in brief: as §1
# [24] = target: Man(a1-2)Man(a1-3)[Man(a1-6)]Man(a1-6)[Man(a1-2)Man(a1-3)]Man(b1-4)GlcNAc(b1-4)GlcNAc
# Method in brief: as §1
# [25] = target: Man(a1-2)Man(a1-6)[Man(a1-3)]Man(a1-6)[Man(a1-2)Man(a1-2)Man(a1-3)]Man(b1-4)GlcNAc(b1-4)GlcNAc
# Method in brief: as §1
# [26] = target: Man(a1-3)[Man(a1-6)]Man
# Method in brief: as §1
# [27] = target: Man(a1-3)[Man(a1-6)]Man(a1-6)[Man(a1-3)]Man(b1-4)GlcNAc(b1-4)GlcNAc
# Method in brief: as §1
# [28] = target: Neu5Ac(a2-3)Gal
# Method in brief: as §1
# [29] = target: Neu5Ac(a2-3)Gal(b1-3)GalNAc
# Method in brief: as §1
# [30] = target: Neu5Ac(a2-3)Gal(b1-3)GalNAc6S
# Method in brief: as §1
# [31] = target: Neu5Ac(a2-3)Gal(b1-3)GlcNAc
# Method in brief: as §1
# [32] = target: Neu5Ac(a2-3)Gal(b1-3)[Fuc(a1-4)]GlcNAc
# Method in brief: as §1
# [33] = target: Neu5Ac(a2-3)Gal(b1-3)[Neu5Ac(a2-3)Gal(b1-4)]GlcNAc
# Method in brief: as §1
# [34] = target: Neu5Ac(a2-3)Gal(b1-3)[Neu5Ac(a2-6)]GalNAc
# Method in brief: as §1
# [35] = target: Neu5Ac(a2-3)Gal(b1-4)Glc
# Method in brief: as §1
# [36] = target: Neu5Ac(a2-3)Gal(b1-4)GlcNAc
# Method in brief: as §1
# [37] = target: Neu5Ac(a2-3)Gal(b1-4)GlcNAc(b1-3)Gal(b1-4)GlcNAc
# Method in brief: as §1
# [38] = target: Neu5Ac(a2-3)Gal(b1-4)GlcNAc(b1-3)Gal(b1-4)GlcNAc(b1-3)Gal(b1-4)GlcNAc
# Method in brief: as §1
# [39] = target: Neu5Ac(a2-3)Gal(b1-4)GlcNAc6S
# Method in brief: as §1
# [40] = target: Neu5Ac(a2-3)Gal(b1-4)[Fuc(a1-3)]GlcNAc
# Method in brief: as §1
# [41] = target: Neu5Ac(a2-3)Gal(b1-4)[Fuc(a1-3)]GlcNAc(b1-3)Gal
# Method in brief: as §1
# [42] = target: Neu5Ac(a2-3)Gal(b1-4)[Fuc(a1-3)]GlcNAc(b1-3)Gal(b1-4)GlcNAc
# Method in brief: as §1
# [43] = target: Neu5Ac(a2-3)Gal(b1-4)[Fuc(a1-3)]GlcNAc(b1-3)Gal(b1-4)[Fuc(a1-3)]GlcNAc(b1-3)Gal(b1-4)[Fuc(a1-3)]GlcNAc
# Method in brief: as §1
# [44] = target: Neu5Ac(a2-3)Gal(b1-4)[Fuc(a1-3)]GlcNAc6S
# Method in brief: as §1
# [45] = target: Neu5Ac(a2-3)Gal6S(b1-4)GlcNAc
# Method in brief: as §1
# [46] = target: Neu5Ac(a2-3)GalNAc
# Method in brief: as §1
# [47] = target: Neu5Ac(a2-3)[GalNAc(b1-4)]Gal(b1-4)Glc
# Method in brief: as §1
# [48] = target: Neu5Ac(a2-3)[GalNAc(b1-4)]Gal(b1-4)GlcNAc
# Method in brief: as §1
# [49] = target: Neu5Ac(a2-3)[Neu5Ac(a2-6)]GalNAc
# Method in brief: as §1
# [50] = target: Neu5Ac(a2-6)Gal
# Method in brief: as §1
# [51] = target: Neu5Ac(a2-6)Gal(b1-4)Glc
# Method in brief: as §1
# [52] = target: Neu5Ac(a2-6)Gal(b1-4)GlcNAc
# Method in brief: as §1
# [53] = target: Neu5Ac(a2-6)Gal(b1-4)GlcNAc(b1-3)Gal(b1-4)GlcNAc
# Method in brief: as §1
# [54] = target: Neu5Ac(a2-6)Gal(b1-4)GlcNAc(b1-3)Gal(b1-4)[Fuc(a1-3)]GlcNAc(b1-3)Gal(b1-4)[Fuc(a1-3)]GlcNAc
# Method in brief: as §1
# [55] = target: Neu5Ac(a2-6)Gal(b1-4)GlcNAc6S
# Method in brief: as §1
# [56] = target: Neu5Ac(a2-6)GalNAc
# Method in brief: as §1
# [57] = target: Neu5Ac(a2-8)Neu5Ac
# Method in brief: as §1
# [58] = target: Neu5Ac(a2-8)Neu5Ac(a2-3)Gal(b1-4)Glc
# Method in brief: as §1
# [59] = target: Neu5Ac(a2-8)Neu5Ac(a2-3)[GalNAc(b1-4)]Gal(b1-4)Glc
# Method in brief: as §1
# [60] = target: Neu5Ac(a2-8)Neu5Ac(a2-8)Neu5Ac
# Method in brief: as §1
# [61] = target: Neu5Ac(a2-8)Neu5Ac(a2-8)Neu5Ac(a2-3)Gal(b1-4)Glc
# Method in brief: as §1
# [62] = target: Neu5Ac(a2-8)Neu5Ac(a2-8)Neu5Ac(a2-3)[GalNAc(b1-4)]Gal(b1-4)Glc
# Method in brief: as §1
# [63] = target: Neu5Ac(b1-6)GalNAc
# Method in brief: as §1
# [64] = target: Neu5Ac(b2-6)Gal(b1-4)GlcNAc
# Method in brief: as §1
# [65] = target: Neu5Ac9Ac(a2-6)Gal(b1-4)GlcNAc
# Method in brief: as §1
# [66] = target: Neu5Gc(a2-3)Gal(b1-3)GlcNAc
# Method in brief: as §1
# [67] = target: Neu5Gc(a2-3)Gal(b1-3)[Fuc(a1-4)]GlcNAc
# Method in brief: as §1
# [68] = target: Neu5Gc(a2-3)Gal(b1-4)Glc
# Method in brief: as §1
# [69] = target: Neu5Gc(a2-3)Gal(b1-4)GlcNAc
# Method in brief: as §1
# [70] = target: Neu5Gc(a2-3)Gal(b1-4)[Fuc(a1-3)]GlcNAc
# Method in brief: as §1
# [71] = target: Neu5Gc(a2-6)Gal(b1-4)GlcNAc
# Method in brief: as §1
# [72] = target: Neu5Gc(a2-6)GalNAc
# Method in brief: as §1
binder,measurement,setting,value
"IRp60B (Homo sapiens), Q9UGN4-3 (protein) MWLPWALLLLWVPAGDHSELSQNPKQAATQSELHYANLELLMWPLQEKPAPPREVEVEYSTVASPREELHYASVVFDSNTNRIAAQRPREEEPDSDYSVIRKT",glycan array binding signal (z-score),[1],-0.335
same,glycan array binding signal (z-score),[2],-0.348
same,glycan array binding signal (z-score),[3],-0.26
same,glycan array binding signal (z-score),[4],0.079
same,glycan array binding signal (z-score),[5],-0.442
same,glycan array binding signal (z-score),[6],-0.44
same,glycan array binding signal (z-score),[7],-0.256
same,glycan array binding signal (z-score),[8],-0.428
same,glycan array binding signal (z-score),[9],-0.382
same,glycan array binding signal (z-score),[10],-0.41
same,glycan array binding signal (z-score),[11],-0.326
same,glycan array binding signal (z-score),[12],-0.47
same,glycan array binding signal (z-score),[13],-0.244
same,glycan array binding signal (z-score),[14],-0.426
same,glycan array binding signal (z-score),[15],0.761
same,glycan array binding signal (z-score),[16],-0.473
same,glycan array binding signal (z-score),[17],-0.33
same,glycan array binding signal (z-score),[18],-0.27
same,glycan array binding signal (z-score),[19],-0.361
same,glycan array binding signal (z-score),[20],-0.452
same,glycan array binding signal (z-score),[21],-0.434
same,glycan array binding signal (z-score),[22],-0.264
same,glycan array binding signal (z-score),[23],-0.447
same,glycan array binding signal (z-score),[24],-0.364
same,glycan array binding signal (z-score),[25],-0.462
same,glycan array binding signal (z-score),[26],-0.218
same,glycan array binding signal (z-score),[27],-0.408
same,glycan array binding signal (z-score),[28],0.534
same,glycan array binding signal (z-score),[29],-0.469
same,glycan array binding signal (z-score),[30],-0.231
same,glycan array binding signal (z-score),[31],-0.429
same,glycan array binding signal (z-score),[32],-0.134
same,glycan array binding signal (z-score),[33],-0.446
same,glycan array binding signal (z-score),[34],-0.392
same,glycan array binding signal (z-score),[35],-0.363
same,glycan array binding signal (z-score),[36],-0.31
same,glycan array binding signal (z-score),[37],-0.293
same,glycan array binding signal (z-score),[38],0.224
same,glycan array binding signal (z-score),[39],-0.358
same,glycan array binding signal (z-score),[40],-0.444
same,glycan array binding signal (z-score),[41],-0.494
same,glycan array binding signal (z-score),[42],-0.427
same,glycan array binding signal (z-score),[43],0.156
same,glycan array binding signal (z-score),[44],-0.476
same,glycan array binding signal (z-score),[45],-0.352
same,glycan array binding signal (z-score),[46],3.17
same,glycan array binding signal (z-score),[47],-0.323
same,glycan array binding signal (z-score),[48],-0.259
same,glycan array binding signal (z-score),[49],-0.201
same,glycan array binding signal (z-score),[50],-0.304
same,glycan array binding signal (z-score),[51],0.954
same,glycan array binding signal (z-score),[52],-0.273
same,glycan array binding signal (z-score),[53],-0.377
same,glycan array binding signal (z-score),[54],1.2
same,glycan array binding signal (z-score),[55],-0.449
same,glycan array binding signal (z-score),[56],-0.462
same,glycan array binding signal (z-score),[57],-0.306
same,glycan array binding signal (z-score),[58],-0.458
same,glycan array binding signal (z-score),[59],-0.458
same,glycan array binding signal (z-score),[60],-0.355
same,glycan array binding signal (z-score),[61],1.18
same,glycan array binding signal (z-score),[62],-0.469
same,glycan array binding signal (z-score),[63],-0.432
same,glycan array binding signal (z-score),[64],-0.483
same,glycan array binding signal (z-score),[65],0.049
same,glycan array binding signal (z-score),[66],-0.475
same,glycan array binding signal (z-score),[67],-0.41
same,glycan array binding signal (z-score),[68],-0.391
same,glycan array binding signal (z-score),[69],2.84
same,glycan array binding signal (z-score),[70],-0.107
same,glycan array binding signal (z-score),[71],-0.292
same,glycan array binding signal (z-score),[72],0.328
